# The other results are listed elsewhere or left out.
# How the values were obtained:
# [1] = tested on: HSkMC (human skeletal muscle cells); assay: cytotoxicity call (relative viability < 0.9); details: 10 µM
# [2] = tested on: HepG2; assay: cytotoxicity call (relative viability < 0.9); details: 10 µM
# [3] = tested on: S. aureus RN4220; assay: growth inhibition call (relative growth <= 0.2); details: 50 µM
Structure (SMILES),cytotoxicity call [1],cytotoxicity call [2],growth inhibition call [3]
C[C@@H]1CN([C@@H](C)CO)C(=O)Cc2cc(NC(=O)NC3CCCCC3)ccc2O[C@@H]1CN(C)S(=O)(=O)c1cn(C)cn1,inactive,inactive,inactive
CC(CN1c2ccccc2Sc2ccccc21)N(C)C.Cl (stereo not drawn),inactive,active,inactive
COc1ccccc1CNC(=O)C[C@H]1CC[C@H]2[C@@H](COc3ccc(NC(=O)c4ccno4)cc3C(=O)N2C)O1,inactive,inactive,inactive
Cc1ccc(N2C(=O)C(=O)NC2=S)cc1,inactive,inactive,inactive
CC(C)C#Cc1ccc2c(c1)O[C@H](CN(C)C(=O)Cc1ccccn1)[C@H](C)CN([C@H](C)CO)S2(=O)=O,inactive,inactive,inactive
C[C@H]1CCCCO[C@@H](CN(C)C(=O)Nc2ccccc2)[C@@H](C)CN([C@@H](C)CO)C(=O)c2cc(NS(=O)(=O)c3ccc(F)cc3)ccc2O1,inactive,inactive,inactive
CO[C@H](CN(C)C(=O)c1ccccc1F)[C@@H](C)CN([C@H](C)CO)S(=O)(=O)c1ccc(Cl)cc1,inactive,inactive,inactive
C[C@H]1CN([C@@H](C)CO)C(=O)c2cccc(NC(=O)C3CCOCC3)c2O[C@@H]1CN(C)S(=O)(=O)c1ccc(Cl)cc1,inactive,inactive,inactive
Cc1noc(C)c1S(=O)(=O)N(C)C[C@H]1Oc2ccc(NC(=O)Nc3ccccc3)cc2C(=O)N([C@H](C)CO)C[C@@H]1C,inactive,inactive,inactive
C[C@H]1CN([C@@H](C)CO)C(=O)Cc2cc(NC(=O)NC3CCCCC3)ccc2O[C@@H]1CN(C)Cc1ccc(Cl)c(Cl)c1,inactive,inactive,inactive
O=C(COP(=O)(O)O)[C@@H](O)[C@H](O)[C@H](O)COP(=O)(O)O,inactive,inactive,inactive
C[C@@H]1CCCCO[C@@H](CN(C)CC2CC2)[C@H](C)CN([C@@H](C)CO)C(=O)c2cc(NC(=O)Nc3ccc4c(c3)OCO4)ccc2O1,inactive,inactive,inactive
Cc1ccccc1S(=O)(=O)N1C[C@@H](O)COC[C@H]2O[C@H](CC(=O)N3CCC(Cc4ccccc4)CC3)CC[C@@H]21,inactive,active,inactive
C[C@@H]1[C@H]2[C@H](O[C@@H]3O[C@H](CO)[C@@H](O)[C@H](O)[C@H]3O)OC=C(C(=O)O)[C@H]2C[C@@H]1O,inactive,inactive,inactive
C[C@@H]1CN([C@@H](C)CO)S(=O)(=O)c2ccc(-c3cccnc3)cc2O[C@@H]1CN(C)CC1CCOCC1,inactive,inactive,inactive
NCCc1ccc(O)c(O)c1,inactive,inactive,inactive
C[C@H](CO)N1C[C@H](C)[C@H](CN(C)C(=O)NC2CCCCC2)OCCCC[C@H](C)Oc2ccc(NS(=O)(=O)c3cccs3)cc2C1=O,inactive,inactive,inactive
C[C@H](O)C#Cc1ccc2c(c1)O[C@@H](CN(C)C(=O)Nc1ccccc1)[C@H](C)CN([C@H](C)CO)S2(=O)=O,inactive,inactive,inactive
C[C@@H]1CN([C@H](C)CO)S(=O)(=O)c2ccc(C#CC3CCCC3)cc2O[C@H]1CN(C)C(=O)Cc1ccncc1,inactive,inactive,inactive
NCC[C@@H]1CC[C@H](NC(=O)Nc2ccc(F)cc2)[C@@H](CO)O1,inactive,inactive,inactive
C/C=C(/C)C(=O)O[C@@H]1[C@H](OC(C)=O)[C@]2(CO)[C@H](O)C[C@]3(C)C(=CC[C@H]4[C@@]5(C)CC[C@H](O[C@@H]6O[C@H](C(=O)O)[C@@H](O[C@@H]7O[C@H](CO)[C@@H](O)[C@H](O)[C@H]7O)[C@H](O)[C@H]6O[C@@H]6O[C@H](CO)[C@@H](O)[C@H](O)[C@H]6O)[C@](C)(CO)[C@@H]5CC[C@]43C)[C@@H]2CC1(C)C,inactive,inactive,inactive
CC(C)C#Cc1ccc2c(c1)O[C@H](CN(C)S(=O)(=O)c1cn(C)cn1)[C@@H](C)CN([C@H](C)CO)S2(=O)=O,inactive,inactive,inactive
C[C@@H]1CN([C@H](C)CO)C(=O)c2cccc(NC(=O)Nc3ccc(C(F)(F)F)cc3)c2O[C@H]1CN(C)S(=O)(=O)c1ccc(F)cc1,inactive,inactive,inactive
C[C@H](NC(=O)C[C@H]1CC[C@@H](NC(=O)CN2CCOCC2)[C@H](CO)O1)c1ccccc1,inactive,inactive,inactive
CN1C(=O)[C@@H]2[C@@H]3C[C@H]4[C@@H](O[C@H]1[C@H]42)[C@H]3O,inactive,inactive,inactive
NCCC(O)(P(=O)(O)O)P(=O)(O)O,inactive,inactive,inactive

# From the antibiotic and cytotoxicity screens of Wong et al. (2023)
